# According to article PMC12040169 (PLOS Biology, 2025):
# Some of the results follow.
# Tested on: T1, C. trachomatis L2/434/Bu expressing GFP (CTL2-GFP)
# T1 construct: L2/434/Bu GFP intracellular growth in HeLa cells
# Design: species or system HeLa; C. trachomatis total inclusion area by high-content imaging, normalised to DMSO
# Details: total inclusion area; 28.5 h, 10 µM; inhibitor
# Summary of the method: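 Bulk GFP and resorufin signals were read first. Wells were then fixed, stained with Hoechst and imaged to detect GFP inclusions and host nuclei. MICs followed the previously described calculation.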
row,Compound,% of control remaining
1,COCC(=O)N1CCN2C(=O)c3ccccc3NC(=O)[C@@H]2C1 [CBK289582],110.971
2,COc1cc(CN2CCN(Cc3cccc4ccccc34)CC2)c([N+](=O)[O-])cc1OC [CBK074450G],74.0491
3,CCc1ccc(C(=O)c2ccccc2C(=O)O)cc1 [CBK010776],103.639
4,CN(C)C(=O)n1cc(Cl)c(-c2ccccc2)n1 [CBK004985],95.8621
5,CCc1cccc(CC)c1NC(=O)CC1SC(NCc2ccc(C)cc2)=NC1=O (stereo not shown) [CBK059431],96.2944
6,CC(=O)Nc1cccc(-c2cn3ccnc3c(N[C@@H](CO)C(C)C)n2)c1 [CBK036605],112.273
7,O=C1CC(c2nc3ccccc3n2CCc2ccccc2)CN1c1ccccc1 (stereo not shown) [CBK266311],102.508
8,CC(=O)Nc1ccc(CN2CCC[C@H]2c2nc(-c3ccnc(NS(C)(=O)=O)c3)no2)cc1 [CBK288888],91.8563
9,COc1cccc(CN2CCN(CC(=O)N3CCCC3)[C@@H](C)C2)c1 [CBK286171],84.3511
10,O=C(NC(=S)Nc1ccc2oc(-c3ccncc3)nc2c1)c1ccccc1[N+](=O)[O-] [CBK264106],75.398
11,CN1CCN(NC(=O)c2cc(-c3cccnc3)nc3ccc(Cl)cc23)CC1 [CBK267729],100.632
12,NC(=O)c1ccc(Nc2cc(N)ncn2)cc1 [CBK017969],84.9409
13,Cc1cc(C)n(CC(=O)N2CCCC2c2ccc(C)c(C)c2)c(=O)n1 (stereo not shown) [CBK282991],108.652
14,CCN(CC)C(=O)CN1CCC(Oc2cncc(OCCN3CCOCC3)n2)C1 (stereo not shown) [CBK084490],90.5322
15,CCN(CC)CCN1CCN(c2cncc(-c3ccc(F)cc3F)n2)CC1 [CBK065668],120.976
16,CCCc1ccc(S(=O)(=O)n2ccn(-c3ccc4c(c3)OCO4)c2=O)cc1 [CBK106634],91.1526
17,COC(=O)c1ccc(N2CCN(Cc3nc(C)c(C)o3)C(C)C2)cc1 (stereo not shown) [CBK304903],87.4682
18,CC(=O)C12c3ccccc3C(c3ccccc31)C1C(=O)N(c3ccc(Cl)c(C(=O)O)c3)C(=O)C12 (stereo not shown) [CBK263021],98.9987
19,COc1cc(/C=C2\C(=O)N(c3ccccc3Cl)N=C2c2ccccc2)ccc1O [CBK265698],104.728
20,O=C1CN(C(=O)Nc2ccc3[nH]ccc3c2)CCN1 [CBK155858],103.977

row,Compound,% of control remaining
1,C=CCn1ncc(CN(C)Cc2nc3ccccc3[nH]2)c1C [CBK283169],84.5765
2,COc1ccc2c(c1)C(C)CC(C)(C)N2C(=O)CSc1nnc(-c2ccco2)n1C (stereo not shown) [CBK059169],99.2116
3,OCCN1CCC2(CC1)CN(CCO)c1ccccc12 [CBK126759],97.8273
4,CCN(CC(=O)NCc1ccc(Cl)cc1)S(=O)(=O)N1CCCCCC1 [CBK305733],90.9173
5,CN1C(c2ccccc2)=NO[C@]1(C)c1ccccc1 [CBK027170],30.0735
6,CCCn1nc(C)c(-c2cncn2CCCN2CCCCC2)c1C [CBK281496],88.0383
7,CN1CCN(NC(=O)COc2cccc(C(F)(F)F)c2)CC1 [CBK268124],94.295
8,COc1ccc(C(=O)N2CCC3(CCCN(C(=O)CC4NC(=O)NC4=O)C3)C2)cc1OC (stereo not shown) [CBK137082],90.0687
9,CC(=O)NC(c1ccccn1)C1CCCN(C(=O)C2CC2C)C1 (stereo not shown) [CBK285032],89.3746
10,O=C(N[C@H]1CCN2C(=O)c3cc(Br)ccc3NC(=O)[C@H]12)c1cccc(F)c1 [CBK289334],111.025
11,CCC(c1ccc(F)cc1)N(C)C(=O)Cn1cccc(C(=O)NC2CCCCC2)c1=O (stereo not shown) [CBK286114],95.6434
12,CC(C)Nc1cc(Sc2ccccc2N)ncn1 [CBK093729],72.5457
13,O=C(Cn1cnc2c(cnn2-c2ccccc2)c1=O)NCc1ccco1 [CBK287531],120.049
14,N#Cc1cccnc1N1CC2COCCC2(C(=O)N2CCC=C(F)C2)C1 (stereo not shown) [CBK304744],89.6029
15,COc1ccccc1/C=N/N=C(/Nc1ccc(C)cc1)c1nc2ccccc2s1 [CBK265051],97.941
16,Cc1ccn2cc(CNC(=O)N(C)CCc3scnc3C)nc2c1 [CBK307379],89.5473
17,CC(=O)N1CC[C@H]2NC(=O)CNC(=O)C3(CCCC[C@H]2C1)CCN(C(=O)CN1CCCCC1)CC3 [CBK292120],111.264
18,O=C(NC(c1ccccc1)c1ccccc1)c1ccc(Cl)cc1[N+](=O)[O-] [CBK262452],94.5736
19,CC(O)CN(CC(C)O)CC1CC2C=CC1C2 (stereo not shown) [CBK261896],99.2683
20,NC(=O)c1cccc(-c2cnc(N)c(N3CCC[C@@H]3CO)n2)c1 [CBK063458],107.289
